Data as given in PubChem BioAssay AID1346428 (National Center for Advancing Translational Sciences (NCATS), 2018).
Values joined by “and” are separate entries in the source; they are usually repeats but may differ in a detail not shown here. Equal values may be shown once. Among all 48,000 compounds or so, about 1,200 (2.5%) were called active. About 2% were inconclusive and are not listed.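 Rule for the calls: active = activation of at least 60% and not above a set upper limit (about 1 call in 100 departs from these limits); inconclusive = activation of 40% to 60%, or above that upper limit; inactive = activation under 40%.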 The list shows a part of the results.

Target: Probable G-protein coupled receptor 32 (Homo sapiens) (UniProt O75388)
Assay: qHTS for Agonists of Human Resolvin D1 Receptor DRV1; note: 0% is about no effect
Conditions: CHO-K1 GPR32 beta-arrestin PathHunter luminescence, 90 min; at 76.9 µM; stronger effect = higher value; zero percent set by DMSO-only wells
In short: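 GPR32 activation in stably transfected CHO-K1 cells, detected as beta-arrestin recruitment by enzyme-fragment complementation. Compound exposure: 90 min, 37 °C.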

Sequence of UniProt O75388 (O75388 whole entry, looked up): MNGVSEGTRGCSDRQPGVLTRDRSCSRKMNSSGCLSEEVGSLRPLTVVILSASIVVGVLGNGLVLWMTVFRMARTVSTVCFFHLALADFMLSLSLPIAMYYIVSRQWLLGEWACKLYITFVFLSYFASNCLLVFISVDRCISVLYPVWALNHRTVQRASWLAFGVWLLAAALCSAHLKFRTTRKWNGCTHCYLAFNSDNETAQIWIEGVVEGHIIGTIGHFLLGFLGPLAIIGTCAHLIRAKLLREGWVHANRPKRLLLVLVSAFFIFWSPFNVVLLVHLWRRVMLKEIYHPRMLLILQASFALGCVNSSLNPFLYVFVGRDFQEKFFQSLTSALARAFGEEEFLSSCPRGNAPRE

SMILES | activation
COc1ccc(OC)c2sc(N(CCCN(C)C)C(=O)c3ccco3)nc12 | inactive: 9.87%
CCCCOc1ccc(CC(=O)NO)cc1 | inactive: 25.3%
CC(=O)OC(C)C[N+](C)(C)C (stereo not given) | inactive: -6.32% and inactive: 7.16%
CN(C)c1ccc(/C=C2\C(=O)Nc3ccccc32)cc1 | inactive: -33.3%
Cc1ccccc1CNC(=O)CCSCc1cnn(-c2ccccc2)c1-n1cccc1 | inactive: -13.7%
CCOC(=O)c1ccc(NC(=O)c2ccc(-c3cccc(Cl)c3C)o2)cc1 | inactive: -6.56%
CCOc1ccc(CCNC(=O)c2cc3c(-c4ccccc4F)nn(C)c3s2)cc1OCC | inactive: 16%
COc1ccc(C2c3c(-c4ccc(F)cc4)n[nH]c3C(=O)N2c2ccccc2)cc1OC (stereo not given) | inactive: 0.77%
Oc1c(Cl)cc(Cl)cc1Sc1cc(Cl)cc(Cl)c1O | active: 80.5%
O=c1c2oc3ccccc3c2ncn1Cc1ccc(Br)cc1 | inactive: 3.59%
COc1ccc(C2c3c(oc4ccccc4c3=O)C(=O)N2c2nc(C)c(C)s2)cc1 (stereo not given) | inactive: -4.34%
C=CCc1ccccc1OCC(O)CNC(C)C (stereo not given) | inactive: -6.54% and inactive: -5%
CCC(=O)N1CCc2cc(S(=O)(=O)NC(C(=O)NCCc3ccc(C)cc3)C(C)C)ccc21 (stereo not given) | inactive: -8.05%
CSc1cccc(NC(=O)CN(C)S(=O)(=O)c2ccc3c(c2)CCCN3C(C)=O)c1 | inactive: 32.6%
CCCOc1cccc(C2c3c(oc4cc(C)c(C)cc4c3=O)C(=O)N2CCCN2CCOCC2)c1 (stereo not given) | inactive: 6.85%
CCOc1ccccc1C(=O)N1CCCCC1CCN1CCOCC1 (stereo not given) | inactive: -4.6%
Cc1ccc(-c2nc3cc(NC(=O)c4cc(Br)ccc4Cl)ccc3o2)cc1 | inactive: -4.52%
COCc1cc(C)n(CC(=O)Nc2cccc(C(C)=O)c2)c(=O)c1C#N | inactive: 12%
Cc1ccc(C)c(C(=O)CSc2nc3cc(C(=O)NC4CCCC4)ccc3c(=O)n2CC2CCCO2)c1 (stereo not given) | inactive: -2.99%
Cc1ccc(-c2n[nH]c3c2C(c2cccs2)N(c2ccc(Cl)cc2)C3=O)cc1 (stereo not given) | inactive: 0.874%
CC(C)CCNC(=O)c1ccc2c(c1)N(C)C(=O)c1ccccc1S2 | inactive: -12.3%
CC1CCN(S(=O)(=O)c2cn(CC(=O)Nc3ccc(F)cc3)c(=O)c3ccccc23)CC1 | inactive: -16.8%
COc1ccc(N2CCN(Cc3nc(-c4ccc(C)cc4)no3)CC2)cc1 | inactive: 6.05%
CCOc1cc2[nH]c(=O)n(CCCCCC(=O)NC(C)CC)c(=O)c2cc1OCC (stereo not given) | inactive: -1.31%
CC(C)c1nn2c(=O)cc(COC(=O)c3ccccc3Cl)nc2s1 | inactive: -18.2%
O=C(O)CCn1ccc2cc(S(=O)(=O)N3CCCCC3)ccc21 | inactive: -14.8%
COc1ccc(Cl)cc1NC(=O)CCCS(=O)(=O)c1nc(-c2ccc(OC)c(OC)c2)cc(C(F)(F)F)n1 | inactive: -37.9%
CCn1cc2nc(SCc3cccc(F)c3)n(CCc3ccccc3)c(=O)c2n1 | inactive: -11.2%

SMILES | activation
CCC(Cc1ccccc1)NC(=O)Cn1ncc2c3ccccc3n(Cc3ccc(F)cc3)c2c1=O (stereo not given) | inactive: -17.1%
Cc1nnc(NC(=O)CSCc2cc(=O)c3ccc(C)c(C)c3[nH]2)s1 | inactive: -12.4%
Cc1cc(C)n2c(Nc3cccc(C(F)(F)F)c3)c(-c3ccsc3)nc2n1 | inactive: -25.6%
COc1ccc(-c2csc(-c3c(N)c(C(=O)c4ccccc4)n4ccccc34)n2)cc1 | inactive: -11%
O=C(NCc1ccccc1Cl)C1CCN(c2ncnc3c2nc2n3CCCCC2)CC1 | inactive: 4.18%
Cc1ccc2oc(=O)c3cc(C(=O)Nc4cccc(C#N)c4)sc3c2c1 | inactive: 2.58%
Cc1ccc(-n2nc3c(N4CCC(C(=O)NCCC(C)C)CC4)nnc(C)c3c2C)cc1 | inactive: -5.57%
CC(C)c1ccc(S(=O)(=O)c2cnc(SCC(=O)Nc3ccc(F)cc3F)nc2N)cc1 | inactive: 38%
COc1ccc(NC(=O)c2[nH]nc3c2CSc2ccccc2-3)c(OC)c1 | inactive: -0.161%
CCOc1ccccc1NC(=O)c1nnn(CC(=O)Nc2ccccc2CC)c1N | inactive: -2.62%
Cc1cc(C)cc(-n2ccnc2SCC(=O)Nc2ccc(C)c(Cl)c2)c1 | inactive: -4.55%
CCC(=O)N1c2ccccc2CC1C(=O)NCCc1ccc(Cl)cc1 (stereo not given) | inactive: -2.08%
O=C(Cn1nnnc1-c1ccccc1F)Nc1ccc(F)c(F)c1 | inactive: 12.3%
O=C(CN1CCN(c2ccc(Cl)cc2)CC1)Nc1ccc(F)c(F)c1 | inactive: -6.96%
CCCCOC(=O)c1ccc(NC(=O)/C(C#N)=C/c2ccc(C)o2)cc1 | inactive: 3.96%
C[C@H]1c2cccc(O)c2C(O)=C2C(=O)[C@]3(O)C(O)=C(C(N)=O)C(=O)[C@@H](N(C)C)[C@@H]3[C@@H](O)[C@@H]21 | inactive: 6.82% and inactive: 11.4%
CCCCNS(=O)(=O)c1ccc2nc(-c3cccnc3)cc(C(=O)NCCCOCC)c2c1 | inactive: -6.88%
Cc1ccc(NC(=O)COCc2cc(-c3cccs3)on2)cc1Cl | inactive: -17.5%
CCOc1ccccc1CNC(=O)CCn1cccn1 | inactive: 0.289%
Cc1[nH]c2ccccc2c1C(=O)C(=O)NC1CC(=O)N(c2ccccc2)C1 (stereo not given) | inactive: -4.79%
CCN1/C(=C/C(C)=O)Sc2ccc(OC)cc21 | inactive: 0.49%
CCc1ccccc1N1C(=O)N(C)c2ccccc2S1(=O)=O | inactive: 13.8%
Cc1cccc(-n2c(SCC(=O)Nc3ccccc3C)nc3c(oc4ccccc43)c2=O)c1 | inactive: -6.34%
COC(=O)c1ccc(NC(=O)CN(c2cccc(C(F)(F)F)c2)S(C)(=O)=O)cc1 | inactive: 21.5%
COc1cccc(CSc2nc(-c3ccccc3OC)nc3c2Cc2c(CO)cnc(C)c2O3)c1 | inactive: -1.46%
CCCN(CCC)CCCNC(=O)C1CCN(S(=O)(=O)c2cccc3nsnc23)CC1 | inactive: -17.8%
CCOc1ccc(S(=O)(=O)N2CCN(c3ccc(C)cc3C)CC2)c2ccccc12 | inactive: 20.1%
